# Test results as given in the supplement of paper PMC8728848.
# Some of the results follow.
# Columns and labels:
# Experiment in all cases: glycan array binding signal (z-score within array); higher = stronger binding
# Conditions in all cases: glycan notation: IUPAC condensed, linker removed
# [1] = molecular target: GalNAc(b1-4)GlcNAc(b1-3)GalNAc(b1-4)GlcNAc
# Summary of the method: (§1)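 The binding signal is a Z-score computed within each array and averaged over linkers. Arrays of the same protein sequence at different concentrations or buffers were also averaged together. Data originate from 3228 arrays in the Consortium for Functional Glycomics database, kept only where the protein sequence was available.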
# [2] = molecular target: GalNAc(b1-4)GlcNAc6S
# Summary of the method: as §1
# [3] = molecular target: GalNAc(b1-4)[Neu5Ac(a2-6)]Gal(b1-4)Glc
# Summary of the method: as §1
# [4] = molecular target: GalNAc(b1-6)GalNAc
# Summary of the method: as §1
# [5] = molecular target: GalNAc3S(b1-4)Gal3S(b1-4)Glc
# Summary of the method: as §1
# [6] = molecular target: GalNAc3S(b1-4)GlcNAc
# Summary of the method: as §1
# [7] = molecular target: GalNAc3S(b1-4)GlcNAc3S
# Summary of the method: as §1
# [8] = molecular target: GalNAc3S(b1-4)[Fuc(a1-3)]GlcNAc
# Summary of the method: as §1
# [9] = molecular target: GalNAc4S6S(b1-4)GlcNAc
# Summary of the method: as §1
# [10] = molecular target: GalNAc6S(b1-4)GlcNAc
# Summary of the method: as §1
# [11] = molecular target: Glc(a1-2)Glc
# Summary of the method: as §1
# [12] = molecular target: Glc(a1-2)Glc(a1-3)Glc(a1-3)Man(a1-2)Man(a1-2)Man(a1-3)[Man(a1-3)[Man(a1-6)]Man(a1-6)]Man(b1-4)GlcNAc
# Summary of the method: as §1
# [13] = molecular target: Glc(a1-3)Glc
# Summary of the method: as §1
# [14] = molecular target: Glc(a1-3)Glc(a1-3)Man(a1-2)Man(a1-2)Man(a1-3)[Man(a1-2)Man(a1-3)[Man(a1-2)Man(a1-6)]Man(a1-6)]Man(b1-4)GlcNAc(b1-4)GlcNAc
# Summary of the method: as §1
# [15] = molecular target: Glc(a1-3)Glc(a1-3)Man(a1-2)Man(a1-2)Man(a1-3)[Man(a1-3)[Man(a1-6)]Man(a1-6)]Man(b1-4)GlcNAc
# Summary of the method: as §1
# [16] = molecular target: Glc(a1-3)Man(a1-2)Man(a1-2)Man(a1-3)[Man(a1-2)Man(a1-3)[Man(a1-2)Man(a1-6)]Man(a1-6)]Man(b1-4)GlcNAc(b1-4)GlcNAc
# Summary of the method: as §1
# [17] = molecular target: Glc(a1-4)Glc
# Summary of the method: as §1
# [18] = molecular target: Glc(a1-4)Glc(a1-4)Glc
# Summary of the method: as §1
# [19] = molecular target: Glc(a1-4)Glc(a1-4)Glc(a1-4)Glc
# Summary of the method: as §1
# [20] = molecular target: Glc(a1-4)Glc(a1-4)Glc(a1-4)Glc(a1-4)Glc
# Summary of the method: as §1
# [21] = molecular target: Glc(a1-4)Glc(a1-4)Glc(a1-4)Glc(a1-4)Glc(a1-4)Glc
# Summary of the method: as §1
# [22] = molecular target: Glc(a1-4)Glc(a1-4)Glc(a1-4)Glc(a1-4)Glc(a1-4)Glc(a1-4)Glc
# Summary of the method: as §1
# [23] = molecular target: Glc(a1-4)Glc(a1-4)Glc(a1-4)Glc(a1-4)Glc(a1-4)Glc(a1-4)Glc(a1-4)Glc
# Summary of the method: as §1
# [24] = molecular target: Glc(a1-4)Glc(a1-4)Glc(a1-4)Glc(a1-4)Glc(a1-4)Glc(a1-4)Glc(a1-4)Glc(a1-4)Glc
# Summary of the method: as §1
# [25] = molecular target: Glc(a1-4)Glc(a1-4)Glc(a1-4)Glc(a1-4)Glc(a1-4)Glc(a1-4)Glc(a1-4)Glc(a1-4)Glc(a1-4)Glc
# Summary of the method: as §1
# [26] = molecular target: Glc(a1-4)Glc(a1-4)Glc(a1-4)Glc(a1-4)Glc(a1-4)Glc(a1-4)Glc(a1-4)Glc(a1-4)Glc(a1-4)Glc(a1-4)Glc
# Summary of the method: as §1
# [27] = molecular target: Glc(a1-4)Glc(a1-4)Glc(a1-4)Glc(a1-4)Glc(a1-4)Glc(a1-4)Glc(a1-4)Glc(a1-4)Glc(a1-4)Glc(a1-4)Glc(a1-4)Glc
# Summary of the method: as §1
# [28] = molecular target: Glc(a1-4)Glc(a1-4)Glc(a1-4)Glc(a1-4)Glc(a1-4)Glc(a1-4)Glc(a1-4)Glc(a1-4)Glc(a1-4)Glc(a1-4)Glc(a1-4)Glc(a1-4)Glc
# Summary of the method: as §1
# [29] = molecular target: Glc(a1-6)Glc
# Summary of the method: as §1
# [30] = molecular target: Glc(a1-6)Glc(a1-4)Glc(a1-4)Glc
# Summary of the method: as §1
# [31] = molecular target: Glc(a1-6)Glc(a1-6)Glc
# Summary of the method: as §1
# [32] = molecular target: Glc(a1-6)Glc(a1-6)Glc(a1-6)Glc
# Summary of the method: as §1
# [33] = molecular target: Glc(a1-6)Glc(a1-6)Glc(a1-6)Glc(a1-6)Glc
# Summary of the method: as §1
# [34] = molecular target: Glc(a1-6)Glc(a1-6)Glc(a1-6)Glc(a1-6)Glc(a1-6)Glc
# Summary of the method: as §1
# [35] = molecular target: Glc(a1-6)Glc(a1-6)Glc(a1-6)Glc(a1-6)Glc(a1-6)Glc(a1-6)Glc
# Summary of the method: as §1
# [36] = molecular target: Glc(a1-6)Glc(a1-6)Glc(a1-6)Glc(a1-6)Glc(a1-6)Glc(a1-6)Glc(a1-6)Glc
# Summary of the method: as §1
# [37] = molecular target: Glc(a1-6)Glc(a1-6)Glc(a1-6)Glc(a1-6)Glc(a1-6)Glc(a1-6)Glc(a1-6)Glc(a1-6)Glc
# Summary of the method: as §1
# [38] = molecular target: Glc(a1-6)Glc(a1-6)Glc(a1-6)Glc(a1-6)Glc(a1-6)Glc(a1-6)Glc(a1-6)Glc(a1-6)Glc(a1-6)Glc
# Summary of the method: as §1
binder,measurement,setting,value
"PNA (Arachis hypogaea), P02872 (protein) MKPFCVFLTFFLLLAASSKKVDSAETVSFNFNSFSEGNPAINFQGDVTVLSNGNIQLTNLNKVNSVGRVLYAMPVRIWSSATGNVASFLTSFSFEMKDIKDYDPADGIIFFIAPEDTQIPAGSIGGGTLGVSDTKGAGHFVGVEFDTYSNSEYNDPPTDHVGIDVNSVDSVKTVPWNSVSGAVVKVTVIYDSSTKTLSVAVTNDNGDITTIAQVVDLKAKLPERVKFGFSASGSLGGRQIHLIRSWSFTSTLITTTRRSIDNNEKKIMNMASA",glycan array binding signal (z-score),[1],0.056
same,glycan array binding signal (z-score),[2],-0.298
same,glycan array binding signal (z-score),[3],-0.195
same,glycan array binding signal (z-score),[4],-0.243
same,glycan array binding signal (z-score),[5],-0.195
same,glycan array binding signal (z-score),[6],-0.376
same,glycan array binding signal (z-score),[7],-0.528
same,glycan array binding signal (z-score),[8],-0.335
same,glycan array binding signal (z-score),[9],-0.748
same,glycan array binding signal (z-score),[10],-0.046
same,glycan array binding signal (z-score),[11],-0.195
same,glycan array binding signal (z-score),[12],-0.195
same,glycan array binding signal (z-score),[13],-0.195
same,glycan array binding signal (z-score),[14],-0.195
same,glycan array binding signal (z-score),[15],-0.195
same,glycan array binding signal (z-score),[16],-0.195
same,glycan array binding signal (z-score),[17],-0.176
same,glycan array binding signal (z-score),[18],-0.195
same,glycan array binding signal (z-score),[19],-0.158
same,glycan array binding signal (z-score),[20],-0.195
same,glycan array binding signal (z-score),[21],-0.195
same,glycan array binding signal (z-score),[22],-0.195
same,glycan array binding signal (z-score),[23],-0.195
same,glycan array binding signal (z-score),[24],-0.195
same,glycan array binding signal (z-score),[25],-0.195
same,glycan array binding signal (z-score),[26],-0.195
same,glycan array binding signal (z-score),[27],-0.195
same,glycan array binding signal (z-score),[28],-0.195
same,glycan array binding signal (z-score),[29],-0.195
same,glycan array binding signal (z-score),[30],-0.195
same,glycan array binding signal (z-score),[31],-0.177
same,glycan array binding signal (z-score),[32],-0.136
same,glycan array binding signal (z-score),[33],-0.195
same,glycan array binding signal (z-score),[34],-0.195
same,glycan array binding signal (z-score),[35],-0.195
same,glycan array binding signal (z-score),[36],-0.195
same,glycan array binding signal (z-score),[37],-0.195
same,glycan array binding signal (z-score),[38],-0.195
